Measured values published in PubChem BioAssay (NCI).
“And” between values parts separate entries of the source, which are not always exact repeats. Equal entries are not always repeated.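 Tested at 5 concentrations; 48 h exposure; 96-well plates; endpoints linearly interpolated, else capped at highest concentration. GI50 marks 50% less growth. TGI marks complete inhibition of growth.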 Peptide text beside a SMILES is read from it. * marks the point of attachment. Boc = CC(C)(C)OC(=O)*

The compounds below were run on NCI-H322M lung (assay: inhibition of tumour cell growth, NCI panel, 48 h).
In the case of `Cc1[nH]c2ccccc2c1C1CC(=O)NC1=O` (stereo not given), the TGI is reported as over 100 µM.
Compound `CC1Cc2c(N)nc(N3CCOCC3)nc2NC1=O` (stereo not given) has a TGI of over 100 µM.
Compound `NC1=NC(c2ccccc2)CC(c2cc(Cl)cc(Br)c2O)=N1` (stereo not given) has a TGI of 41.4 µM.
`CCOP(=O)(OCC)/C(C#N)=C/c1cccn1N(C)C` gave a TGI of over 100 µM.
`COC1OC(CBr)C(OC(c2ccccc2)(c2ccccc2)c2ccccc2)C(OC(c2ccccc2)(c2ccccc2)c2ccccc2)C1OC(c1ccccc1)(c1ccccc1)c1ccccc1` (stereo not given) showed a TGI of over 100 µM.
`CCOC(=O)/C=C(\N=P(c1ccccc1)(c1ccccc1)c1ccccc1)C(F)(F)C(F)(F)C(F)(F)C(F)(F)C(F)(F)F` was tested, and the TGI was over 100 µM.
`O=C1CC(c2ccc[nH]2)=NN1c1ccccc1` showed a TGI of over 100 µM.
With `CC(=N/NC(=S)N1CCCCC1)/C(C)=N\NC(=S)N1CCCCC1` the TGI was 3.51 µM.
With `CCC(c1ccc(OC)cc1)C(CC)c1ccc(O)c(CN2CCCC2)c1` (stereo not given) the GI50 was 5.13 µM and the TGI was 18.3 µM.
With `COc1ccc(CCc2ccc(O)c(C(=O)O)c2)cc1OC` the TGI was over 100 µM.
`COC1(OC)C2(Cl)C(Cl)=C(Cl)C1(Cl)C1COCC12` (stereo not given) was tested, and the TGI was over 100 µM.
With `CSc1nc(O)c(/C=C2\C=Nc3ccccc32)[nH]1` the TGI was over 100 µM.
For `O=c1c(O)c(-c2cc(O)c(O)cc2O)oc2cc(O)c(C3OC(CO)C(O)C(O)C3O)c(O)c12` (stereo not given), the TGI was over 100 µM.
In the case of `CN(C)Cc1cccc(CN(C)C)[c]1[Sn]([Br])([c]1ccccc1)[c]1ccccc1`, the GI50 is reported as 13 µM and the TGI is reported as 38.3 µM.
`NCCCn1c2c(c3cc4c(cc3c1=O)OCO4)C(=O)c1ccccc1-2` showed a GI50 of 0.709 µM and a TGI of 1.96 µM.
In the case of `Cc1ccc(C(=O)CCC2C(=O)CC(C)(C)CC2=O)cc1`, the TGI is reported as over 100 µM.
In the case of `O=C(CCc1ccccc1CO)NCCc1ccccc1`, the TGI is reported as over 100 µM.
`NC(Cc1c[nH]c2ccccc12)C(=O)O` (stereo not given) showed a TGI of over 300 µM.
`S=P(c1ccccc1)(c1ccccc1)C1(C2(P(=S)(c3ccccc3)c3ccccc3)CC2)CC1` was tested, and the TGI was over 100 µM.
For `CCOCC(NC(=O)C(CC(C)C)NC(=O)OC(C)(C)C)C(N)=O` (stereo not drawn) (Boc-Leu-Ser(Et)-NH2; configuration not given here), the TGI was over 100 µM.
For `N#CC(N=Nc1ccccc1)c1nc2ccccc2o1` (stereo not given), the TGI was over 100 µM.
In the case of `COc1ccc(Nc2nc(N)c(C(=O)c3ccccc3)s2)cc1`, the TGI is reported as over 100 µM.
`CC1=C2C(=O)C(C)(C)C=C2C(=O)[C@](C)(O)C12CC2` showed a TGI of over 1 µM.
`c1ccc(/N=C2\c3ccccc3CN2c2ccccn2)nc1` gave a TGI of over 100 µM.
For `C[C@@H](NC1CCC[C@@H]1O)c1ccccc1` (stereo not given in full), the TGI was over 100 µM.
`COc1cc(C2SCC(=O)N2c2ccc(Cl)cc2)cc(I)c1O` (stereo not given) showed a TGI of over 100 µM.
With `Cc1ccc2c(N/N=C\c3ccco3)cc(C)nc2n1` the GI50 was 3.29 µM and the TGI was 13 µM.
For `COc1ccc(C2SCC(=O)N2NC(=O)C(C)Oc2ccccc2Cl)cc1` (stereo not given), the TGI was over 100 µM.
For `Cc1ccc(Nc2nc(=O)[nH]c(=O)[nH]2)cc1N=[N+]=[N-]`, the TGI was over 100 µM.
In the case of `O=CC1OC(=O)c2cc(O)c(O)c(O)c2-c2c(cc(O)c(O)c2O)C(=O)OC1C(O)C(O)CO` (stereo not given), the TGI is reported as over 100 µM.
`O=C(/C=C\Nc1ccccc1O)C(Cl)(Cl)Cl` was tested, and the TGI was over 100 µM.
With `CC1(C)CCC2(C(=O)O)CC[C@]3(C)C(=CCC4C5(C)CC[C@H](OC6OC(C(=O)O)C(O)C(OC7OC(CO)C(O)C(O)C7O)C6OC6OC(CO)C(O)C(O)C6O)C(C)(C)C5CCC43C)C2C1` (stereo not given in full) the GI50 was 26.1 µM and the TGI was 91.3 µM.
With `O=C(O)CCSC(=O)Nc1cccc([N+](=O)[O-])c1` the TGI was over 100 µM.
For `Fc1cc(-c2ncc(Cl)cc2Cl)c2cccccc1-2`, the TGI was over 100 µM.
In the case of `NCCCc1c(-c2ccccc2)nc(N)[nH]c1=O`, the TGI is reported as over 100 µM.
`CC(C)(C)N1CC(OC(N)=O)C1` was tested, and the GI50 was over 100 µM and the TGI was over 100 µM.
Work on `N#C/C(=C/C=C/c1ccccc1)S(=O)c1ccccc1` (stereo not given) yielded a GI50 of 1.54 µM and a TGI of 3.78 µM.
In the case of `CCc1n[nH]c(=O)n1NC(=O)c1ccccc1C(=O)O`, the TGI is reported as over 100 µM.
`O=C(N/N=C\c1ccc([N+](=O)[O-])cc1)Nc1cccc2ccccc12` was tested, and the TGI was over 100 µM.
`O=C1NC(=O)C(=O)C(c2nc3ccccc3s2)C1=O` showed a TGI of over 100 µM.
With `COc1cc2c(Nc3ccc(Br)cc3F)ncnc2cc1OCC1CCN(C)CC1` the GI50 was 0.388 µM and 0.389 µM and the TGI was 7.91 µM and > 10 µM.
Compound `CC(=O)O[C@H]1C(=O)[C@@]2(C)[C@H]([C@H](OC(=O)c3ccccc3)[C@]3(O)C[C@H](OC(=O)[C@H](O)[C@@H](NC(=O)CC(C)C)c4ccccc4)C(C)=C1C3(C)C)[C@]1(OC(C)=O)CO[C@@H]1C[C@@H]2O` has a TGI of over 10 µM.
For `COc1ccccc1N1CCN(C(=O)c2ccc(NS(=O)(=O)c3cccc4cccnc34)cc2)CC1`, the GI50 was over 100 µM and the TGI was over 100 µM.
Work on `CC(C)CC1[C@@H](OCc2ccccc2)COS(=O)(=O)N1Cc1ccccc1` (stereo not given in full) yielded a TGI of over 100 µM.
`COc1cc(C)[nH]c(=O)c1CN1CCc2c(Cl)cc([C@H](OC)C3COC3)c(Cl)c2C1=O` was tested, and the GI50 was over 100 µM and the TGI was over 100 µM.
Work on `Cn1c2ccccc2n2c(=O)c3cccnc3c(C#N)c12` yielded a TGI of over 100 µM.
`CCC1CCCCN1C(=S)N/N=C(\C)c1ccccn1` (stereo not given) showed a GI50 of 0.084 µM and a TGI of 5.99 µM.
`C[C@@H](Oc1cc(NS(=O)(=O)N2CCC2)nc(SCc2cccc(F)c2F)n1)[C@@H](O)CO` was tested, and the GI50 was over 100 µM and the TGI was over 100 µM.
